# The supplement of paper PMC7580552
# Counter-ions that a name gives are not always drawn. ± gives the standard deviation of the averaged measurements. The list shows a part of the results. Single values are uncertain, as repeats are few or missing.
# Test system: Escherichia coli W3110
# Assay: planktonic growth (OD600) relative to untreated control; higher = more growth
# Settings: 10 µM; 20-24 h; 30 °C; TB
# 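Note: stationary (unshaken) cultures in 96-well plates, started at OD600 0.05 from mid-exponential cells, with compounds supplied from DMSO stocks.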
row,SMILES,planktonic growth [%]
1,OCCN1CCN(CC/C=C2/c3ccccc3Sc3ccc(Cl)cc32)CC1 [Zuclopenthixol dihydrochloride],100
2,Nc1ccc(C(=O)O)c(O)c1 [4-aminosalicylic acid],92
3,O=C1Nc2ccc(Cl)cc2[C@@](C#CC2CC2)(C(F)(F)F)O1 [Efavirenz],90
4,Clc1ccc(C(c2ccccc2Cl)C(Cl)Cl)cc1 (configuration not stated) [Mitotane],103
5,O=C1O[C@H]([C@@H](O)CO)C(O)=C1O [Ascorbic acid],99
6,Cc1cccc(C)c1OCC(=O)N[C@@H](Cc1ccccc1)[C@@H](O)C[C@H](Cc1ccccc1)NC(=O)[C@H](C(C)C)N1CCCNC1=O [Lopinavir],97
7,O=C(O)c1ccccc1Nc1cccc(C(F)(F)F)c1 [Flufenamic acid],102
8,CC[N+](C)(CC)CCC[n+]1c(-c2ccccc2)c2cc(N)ccc2c2ccc(N)cc21 [Propidium iodide],104
9,CC(C)NNC(=O)c1ccncc1 [Iproniazide phosphate],93
10,"O=C1c2cccc(O)c2C(=O)c2c(O)cccc21 [1,8-Dihydroxyanthraquinone]",96
11,CCCCC(=O)N(Cc1ccc(-c2ccccc2-c2nnn[nH]2)cc1)[C@H](C(=O)O)C(C)C [Valsartan],102
12,OC(CCN1CCCCC1)(c1ccccc1)c1ccccc1 [Pridinol methanesulfonate salt],94
13,CCN(CC)CCNC(=O)c1cc(Br)c(N)cc1OC [Bromopride],96
14,C[N+](C)(C)CCOC(N)=O [Carbachol],107
15,CC(C)(C)NC[C@H](O)COc1cccc2c1CCCC2=O [(-) -Levobunolol hydrochloride],104
16,Nc1ncn(C2OC(CO)C(O)C2O)c(=O)n1 (configuration not stated) [Azacytidine-5],88
17,O=C(NC(Cc1cc(=O)[nH]c2ccccc12)C(=O)O)c1ccc(Cl)cc1 (configuration not stated) [Rebamipide],110
18,O=C1c2c(O)ccc(O)c2C(=O)c2c(NCCNCCO)ccc(NCCNCCO)c21 [Mitoxantrone dihydrochloride],120
19,CCOC(=O)C1=C(C)NC(C)=C(C(=O)OC)C1c1cccc(Cl)c1Cl (configuration not stated) [Felodipine],96
20,C[C@H](CCC(=O)O)[C@H]1CC[C@H]2[C@@H]3C(=O)C[C@@H]4CC(=O)CC[C@]4(C)[C@H]3CC(=O)[C@]12C [Dehydrocholic acid],102
21,CN1CCN2c3ccccc3Cc3ccccc3C2C1 (configuration not stated) [Mianserine hydrochloride],94
22,N[C@@H](Cc1ccc(O)c(O)c1)C(=O)O [Levodopa],94
23,CCCCc1ncc(/C=C(\Cc2cccs2)C(=O)O)n1Cc1ccc(C(=O)O)cc1 [Eprosartan mesylate],99
24,O=C(O)CCC(=O)c1ccc(-c2ccccc2)cc1 [Fenbufen],91
25,COc1ccccc1OCCNCC(O)COc1cccc2[nH]c3ccccc3c12 (configuration not stated) [Carvedilol],101
26,CC(C)c1nc(CN(C)C(=O)N[C@H](C(=O)N[C@@H](Cc2ccccc2)C[C@H](O)[C@H](Cc2ccccc2)NC(=O)OCc2cncs2)C(C)C)cs1 [Ritonavir],101

row,SMILES,planktonic growth [%]
1,CC(C)[C@H]1CC[C@H](C(=O)N[C@H](Cc2ccccc2)C(=O)O)CC1 [Nateglinide],96
2,CCCCOc1ccc(OCCCN2CCOCC2)cc1 [Pramoxine hydrochloride],103
3,O=C(NCC1CCCCN1)c1cc(OCC(F)(F)F)ccc1OCC(F)(F)F (configuration not stated) [Flecainide acetate],98
4,CC1CCc2cc(F)cc3c(=O)c(C(=O)O)cn1c23 (configuration not stated) [Flumequine],6
5,CCN1CCCC1CNC(=O)c1cc(S(=O)(=O)CC)c(N)cc1OC (configuration not stated) [Amisulpride],99
6,Nc1nc(N)nc(-c2cc(Cl)ccc2Cl)n1 [Irsogladine maleate],96
7,COc1cc(N)c(Cl)cc1C(=O)NC1CCN(Cc2ccccc2)CC1 [Clebopride maleate],94
8,O=C(c1ccc(OCCN2CCCCC2)cc1)c1c(-c2ccc(O)cc2)sc2cc(O)ccc12 [Raloxifene hydrochloride],102
9,NS(=O)(=O)c1cc2c(cc1C(F)(F)F)NC(Cc1ccccc1)NS2(=O)=O (configuration not stated) [Bendroflumethiazide],92
10,CC(CN1c2ccccc2Sc2ccccc21)N(C)C (configuration not stated) [Promethazine hydrochloride],108
11,CCOC(=O)C1=C(C)NC(C)=C(C(=O)OC)C1c1cccc([N+](=O)[O-])c1 (configuration not stated) [Nitrendipine],95
12,CCn1cc(C(=O)O)c(=O)c2cc(F)c(N3CCNCC3)cc21 [Norfloxacin],20
13,CN(C)CCC(c1ccc(Cl)cc1)c1ccccn1 (configuration not stated) [Chlorpheniramine maleate],93
14,COc1cc(N)c(Cl)cc1C(=O)NC1CCN(CCCOc2ccc(F)cc2)CC1OC (configuration not stated) [Cisapride],102
15,COC1=CC(=O)C[C@@H](C)[C@]12Oc1c(Cl)c(OC)cc(OC)c1C2=O [Griseofulvin],94
16,O=C(O)CNC(=O)C(CS)Cc1ccccc1 (configuration not stated) [Thiorphan],106
17,Cc1onc(-c2ccccc2)c1C(=O)N[C@@H]1C(=O)N2[C@@H]1SC(C)(C)[C@@H]2C(=O)O [Oxacillin sodium],97
18,CN(C)CCCC1(c2ccc(F)cc2)OCc2cc(C#N)ccc21 (configuration not stated) [Citalopram Hydrobromide],99
19,CCCC(CCC)C(=O)O [Valproic acid],87
20,CC(C)(C)NCC(O)c1ccc(O)c(CO)c1 (configuration not stated) [Salbutamol],93
21,Cn1c(=O)c2c(ncn2C)n(C)c1=O [Caffeine],96
22,Cc1c(OCC(F)(F)F)ccnc1C[S+]([O-])c1nc2ccccc2[nH]1 (configuration not stated) [Lansoprazole],98
23,COC(=O)Nc1nc2cc(C(=O)c3ccc(F)cc3)ccc2[nH]1 [Flubendazol],96.5 ± 0.71
24,CC(C)(C)NC(=O)[C@@H]1CN(Cc2cccnc2)CCN1C[C@@H](O)C[C@@H](Cc1ccccc1)C(=O)N[C@H]1c2ccccc2C[C@H]1O [Indinavir sulfate],91
25,O=C(O[C@@H]1C[C@@H]2C[C@H]3C[C@H](C1)N2CC3=O)c1c[nH]c2ccccc12 [Dolasetron mesilate],103
26,CN(C)CCC(c1ccccc1)c1ccccn1 (configuration not stated) [Pheniramine maleate],100

row,SMILES,planktonic growth [%]
1,Cc1c(O)cccc1C(=O)N[C@@H](CSc1ccccc1)[C@H](O)CN1C[C@H]2CCCC[C@H]2C[C@H]1C(=O)NC(C)(C)C [Nelfinavir mesylate],117
2,CCSc1ccc2c(c1)N(CCCN1CCN(C)CC1)c1ccccc1S2 [Thiethylperazine dimalate],108
3,O=C(O)c1cc(=O)c2c(OCC(O)COc3cccc4oc(C(=O)O)cc(=O)c34)cccc2o1 [Cromolyn disodium salt],92
4,CCCCOc1ccc(CC(=O)NO)cc1 [Bufexamac],102
5,CC(=O)OC(C)C[N+](C)(C)C (configuration not stated) [Methacholine chloride],95
6,NC[C@H]1CC[C@H](C(=O)O)CC1 [Tranexamic acid],100
7,C=CCc1ccccc1OCC(O)CNC(C)C (configuration not stated) [Alprenolol hydrochloride],113
8,Cc1ccc(O)c([C@H](CCN(C(C)C)C(C)C)c2ccccc2)c1 [Tolterodine tartrate],93
9,CCCC(C(=O)OCCN(CC)CC)(c1ccccc1)c1ccccc1 [Proadifen hydrochloride],90
10,C=CC[N@@+]12CC[C@@]34c5ccccc5N5/C=C6/[C@H]7C[C@H]8[C@@]9(CC[N@@+]8(CC=C)C/C7=C/CO)c7ccccc7N(/C=C(/[C@@H](C[C@@H]31)/C(=C\CO)C2)[C@H]54)[C@@H]69 [Alcuronium chloride],95
11,Clc1ccc(COC(Cn2ccnc2)c2ccc(Cl)cc2Cl)cc1 (configuration not stated) [Econazole nitrate],83
12,CO/N=C1\CN(c2nc3c(cc2F)c(=O)c(C(=O)O)cn3C2CC2)CC1CN (configuration not stated) [Gemifloxacin mesylate],25
13,Clc1ccccc1C(c1ccccc1)(c1ccccc1)n1ccnc1 [Clotrimazole],98
14,CCN(CCCc1ccccc1)CCCc1ccccc1 [Alverine citrate salt],91
15,CCN(CC)C(=O)N1CCN(C)CC1 [Diethylcarbamazine citrate],99
16,O=P(O)(O)C(O)(Cc1cccnc1)P(=O)(O)O [Risedronic acid monohydrate],94
17,CC(C)(Oc1ccc(C2CC2(Cl)Cl)cc1)C(=O)O (configuration not stated) [Ciprofibrate],93
18,C=CCN1CCCC1CNC(=O)c1cc2nn[nH]c2cc1OC (configuration not stated) [Alizapride hydrochloride],95
19,CC1=C(C(=O)O)N2C(=O)[C@@H](NC(=O)[C@H](N)c3ccc(O)cc3)[C@H]2SC1 [Cefadroxil],97
20,CNC1(C)C2CCC(C2)C1(C)C (configuration not stated) [Mecamylamine hydrochloride],65.5 ± 59
21,Cn1c(=O)c2c(ncn2CC(O)CO)n(C)c1=O (configuration not stated) [Diprophylline],95
22,NC(=O)c1cccnc1 [Nicotinamide],109
23,CC(=C(CCO)SSCC1CCCO1)N(C=O)Cc1cnc(C)nc1N (stereo in doubt) [Fursultiamine Hydrochloride],97
24,CCC(C)(CN(C)C)OC(=O)c1ccccc1 (configuration not stated) [Amyleine hydrochloride],109
25,C=C(NC(=O)C(=C)NC(=O)c1csc(C2=N[C@@H]3c4csc(n4)[C@H]4NC(=O)c5csc(n5)[C@H]([C@](C)(O)[C@@H](C)O)NC(=O)[C@H]5CSC(=N5)/C(=C/C)NC(=O)[C@H]([C@@H](C)O)NC(=O)c5csc(n5)[C@]3(CC2)NC(=O)[C@H](C)NC(=O)C(=C)NC(=O)[C@H](C)NC(=O)[C@H]([C@@H](C)CC)N[C@@H]2C=Cc3c([C@H](C)O)cc(nc3[C@H]2O)C(=O)O[C@@H]4C)n1)C(N)=O [Thiostrepton],115
